# Assay results taken from the supplement of paper PMC7826260.
# The list shows a part of the results. Each Rep nickase domain was tested in vitro on the same pool of single strands at 3 µM enzyme and 37 °C for 1 h; the strands have 90 letters, of which the middle is given. Values are log2 of uncut reads against the no-enzyme pool; uncut sequences lie near 0, cut ones below; no hit call is given. The scaling is to total reads, so uncut sequences can rise above 0 when many others are cut.
# How the values were obtained:
# Experiment in all cases: uncleaved DNA left, log2 of reads against the no-enzyme library (log2 ratio); higher = less cleavage (more negative = more Rep cleavage of the k-mer); sequences stand for … in CTCGTCCG…ACCGGAGA
# [1] = test system: T1, Rep nickase domain of Muscovy duck circovirus
# T1 sequence (residues 1-111, tag not shown): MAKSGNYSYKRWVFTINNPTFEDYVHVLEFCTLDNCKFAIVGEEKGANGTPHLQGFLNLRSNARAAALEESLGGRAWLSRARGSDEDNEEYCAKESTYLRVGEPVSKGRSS
# Procedure: (§1)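 A pool of 90-nt single-stranded DNAs with seven random bases just before the constant AC of the nick site (name = the seven bases) was cut by 3 µM recombinant His6-SUMO-tagged Rep nickase domain (300 nM DNA, 50 mM HEPES pH 8.0, 50 mM NaCl, 1 mM MnCl2, 1 h, 37 °C, three replicates). Uncut DNA was amplified and sequenced.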
# [2] = test system: T2, Rep nickase domain of banana bunchy top virus
# T2 sequence (residues 1-94, tag not shown): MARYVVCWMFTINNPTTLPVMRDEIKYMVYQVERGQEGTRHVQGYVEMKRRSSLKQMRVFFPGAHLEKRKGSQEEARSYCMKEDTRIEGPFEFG
# Procedure: as §1
# [3] = test system: T3, Rep nickase domain of cabbage leaf curl virus
# T3 sequence (residues 1-116, tag not shown): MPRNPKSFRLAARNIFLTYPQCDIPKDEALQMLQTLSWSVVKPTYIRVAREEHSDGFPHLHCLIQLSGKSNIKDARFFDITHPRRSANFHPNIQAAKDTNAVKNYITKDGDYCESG
# Procedure: as §1
# [4] = test system: T4, Rep nickase domain of chickpea chlorotic dwarf virus
# T4 sequence (residues 1-124, tag not shown): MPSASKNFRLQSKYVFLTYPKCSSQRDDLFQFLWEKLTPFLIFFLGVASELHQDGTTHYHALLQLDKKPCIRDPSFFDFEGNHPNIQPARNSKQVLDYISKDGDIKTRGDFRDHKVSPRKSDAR
# Procedure: as §1
# [5] = test system: T5, Rep nickase domain of faba bean necrotic yellows virus
# T5 sequence (residues 1-98, tag not shown): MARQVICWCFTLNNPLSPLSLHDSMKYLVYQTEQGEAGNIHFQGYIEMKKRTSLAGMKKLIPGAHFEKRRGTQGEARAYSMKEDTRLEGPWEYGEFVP
# Procedure: as §1
# [6] = test system: T6, Rep nickase domain of maize striate mosaic virus
# T6 sequence (residues 1-117, tag not shown): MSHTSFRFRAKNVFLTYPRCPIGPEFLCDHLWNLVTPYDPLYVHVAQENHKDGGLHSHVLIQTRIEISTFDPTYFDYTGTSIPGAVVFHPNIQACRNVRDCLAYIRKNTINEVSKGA
# Procedure: as §1
# [7] = test system: T7, Rep nickase domain of porcine circovirus 2
# T7 sequence (residues 2-116, tag not shown): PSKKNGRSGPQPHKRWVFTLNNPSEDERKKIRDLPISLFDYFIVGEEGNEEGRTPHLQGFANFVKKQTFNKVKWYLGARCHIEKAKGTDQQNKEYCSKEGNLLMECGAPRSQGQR
# Procedure: as §1
# [8] = test system: T8, Rep nickase domain of tomato golden mosaic virus
# T8 sequence (residues 1-124, tag not shown): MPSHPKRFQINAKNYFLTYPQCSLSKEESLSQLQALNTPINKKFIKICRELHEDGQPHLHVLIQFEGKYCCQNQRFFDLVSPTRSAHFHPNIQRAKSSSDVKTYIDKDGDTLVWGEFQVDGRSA
# Procedure: as §1
# [9] = test system: T9, Rep nickase domain of tomato yellow leaf curl virus
# T9 sequence (residues 1-136, tag not shown): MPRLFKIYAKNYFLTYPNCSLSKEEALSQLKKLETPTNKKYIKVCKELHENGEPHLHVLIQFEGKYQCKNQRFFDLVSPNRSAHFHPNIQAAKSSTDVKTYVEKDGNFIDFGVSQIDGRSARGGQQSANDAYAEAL
# Procedure: as §1
# [10] = test system: T10, Rep nickase domain of wheat dwarf virus
# T10 sequence (residues 1-137, tag not shown): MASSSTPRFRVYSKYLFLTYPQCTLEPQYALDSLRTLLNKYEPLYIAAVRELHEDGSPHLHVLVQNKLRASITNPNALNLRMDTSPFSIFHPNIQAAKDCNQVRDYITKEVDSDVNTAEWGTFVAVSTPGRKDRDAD
# Procedure: as §1
Sequence,uncleaved DNA left (log2) [1],uncleaved DNA left (log2) [2],uncleaved DNA left (log2) [3],uncleaved DNA left (log2) [4],uncleaved DNA left (log2) [5],uncleaved DNA left (log2) [6],uncleaved DNA left (log2) [7],uncleaved DNA left (log2) [8],uncleaved DNA left (log2) [9],uncleaved DNA left (log2) [10]
ATATGCT,-1.74,-0.131,-1.53,-2.35,0.0478,-1.54,-2.49,-0.188,0.0759,-0.228
AATGTAC,0.0431,0.0573,-0.051,-0.425,0.0997,-0.347,0.0897,0.0388,0.0203,0.0945
AAAACCT,-0.182,-0.0736,-1.94,-2.8,-0.0416,-0.736,-1.6,-0.223,-0.0689,-0.506
TTTGCGG,0.0644,-0.0394,-0.13,-0.128,-0.0191,-0.307,0.0481,0.0305,0.0243,-0.0195
CCGCAAT,0.0236,0.025,0.215,-0.198,0.032,-0.0929,-0.178,-0.0898,-0.238,-0.193
CAAAGCT,-0.089,-0.065,-1.4,-2.5,-0.105,-0.835,-0.135,-0.245,-0.077,-0.221
CTTACTC,-0.084,-0.0105,-0.0992,-2.32,-0.124,-0.662,0.0765,-0.151,0.0088,-0.0275
TGGTGTA,0.0236,0.161,0.321,0.241,0.108,1.07,-0.0623,0.104,0.159,0.094
GGAGTGT,0.159,0.0032,0.57,1.24,0.0564,1.7,0.157,0.105,0.0948,0.0189
GGCAGAA,0.104,0.0449,0.7,1.49,0.162,1.82,0.245,0.0905,0.117,0.169
GGAGCCA,0.149,0.0542,0.704,1.52,0.0859,1.91,0.147,-0.000299,0.134,0.179
GACGCGA,0.0664,-0.0931,-0.526,-0.229,0.228,-0.688,0.0818,0.00527,-0.0461,-0.0641
GGCTTTT,-0.641,0.0598,0.337,0.64,0.00969,1.72,-2.48,-0.00148,0.0375,0.0953
CCCTACC,-0.204,-0.0201,-0.248,-2.29,-0.0139,-0.684,-0.839,-0.103,-0.036,-0.133
GGCCACG,0.0517,0.145,-0.0332,-0.0617,0.0243,-0.192,0.199,0.074,0.0851,0.0692
TCCAGAC,0.139,0.0893,0.271,0.484,0.0444,0.124,0.0907,0.0567,-0.074,-0.0768
GTTTAGT,-0.633,-0.0414,0.172,0.697,0.0754,1.36,-1.04,0.0414,0.0407,-0.049
TACTTGC,-0.143,-0.0443,-0.873,-0.662,-0.0744,-1.21,-0.131,-0.285,-0.131,-0.257
ATCCCTT,-0.0704,-0.0372,0.325,-0.989,0.111,0.203,-0.57,-0.153,-0.0257,0.0365
GCTATTG,-0.0898,-0.0823,-0.336,0.0813,-0.0916,-0.732,-0.0242,-0.000406,-0.0546,-0.139

Sequence,uncleaved DNA left (log2) [1],uncleaved DNA left (log2) [2],uncleaved DNA left (log2) [3],uncleaved DNA left (log2) [4],uncleaved DNA left (log2) [5],uncleaved DNA left (log2) [6],uncleaved DNA left (log2) [7],uncleaved DNA left (log2) [8],uncleaved DNA left (log2) [9],uncleaved DNA left (log2) [10]
GCAATTG,-0.174,-0.127,-0.566,-0.26,-0.0893,-0.931,0.101,-0.106,-0.111,-0.254
TTCATTT,-0.107,-0.169,-0.198,-2.08,-0.0634,-0.786,-0.541,-0.111,-0.2,-0.223
CGTCGAA,-0.0735,-0.0603,-0.175,-0.327,-0.117,-0.754,0.0522,-0.123,-0.212,-0.193
AAAGTCG,0.0353,0.0548,-0.823,-0.0115,0.138,-0.942,0.152,0.0117,0.089,-0.0677
GACGGTA,0.0136,-0.113,0.373,0.337,-0.0894,0.87,0.0722,3.1e-05,-0.0997,0.00135
TCGCCGA,-0.0241,-0.0334,-0.488,-0.494,0.0524,-0.915,0.0208,-0.0964,-0.0678,-0.152
CCTTGGC,-0.0752,-0.148,-0.293,-0.335,-0.00473,-0.9,-0.0494,-0.159,-0.135,-0.248
AACTATG,-0.0233,0.0285,-0.395,-0.369,0.155,-0.847,0.0115,-0.00361,0.0338,0.119
ACCTTCA,-0.061,-0.0199,-0.293,-1.27,0.0313,-0.867,-0.149,0.0625,-0.033,-0.0226
GCTTCCA,-0.095,0.0711,0.185,0.0858,-0.153,0.49,-0.017,0.000458,0.0625,0.0143
TATTGGG,-0.0858,-0.196,-0.647,-0.544,-0.145,-1.11,0.0975,0.00411,-0.0871,-0.0876
ATGCAGC,0.00652,0.049,-0.528,-0.561,-0.0412,-1.04,0.0758,0.0161,-0.0318,0.0807
ACCAGTC,-0.00137,-0.0843,-0.422,-0.418,-0.00729,-1.33,-0.0479,-0.0306,-0.0836,-0.196
TCACCGG,-0.0445,0.0671,0.452,1.39,-0.0557,1.79,0.0355,0.184,-0.0663,0.0796
CAGAAGG,0.131,0.277,0.158,0.628,0.125,-0.397,0.175,0.194,0.0388,0.135
AGCCTGA,0.258,0.122,0.197,0.738,0.031,1.67,0.265,0.161,0.0225,0.175
TTACTGT,0.151,0.111,0.0578,-0.243,0.00792,0.996,0.0345,-0.159,0.0132,0.0277
CCTTGCT,-0.153,-0.042,-0.722,-0.962,0.073,-1.11,-0.552,-0.0359,0.0397,-0.164
TCCCTAA,0.149,0.0311,0.25,-0.133,0.12,-0.183,-0.00777,0.0548,-0.13,0.159
TAGCGAG,0.0911,0.2,0.0494,0.456,0.011,0.0417,0.158,0.14,0.132,0.0861

Sequence,uncleaved DNA left (log2) [1],uncleaved DNA left (log2) [2],uncleaved DNA left (log2) [3],uncleaved DNA left (log2) [4],uncleaved DNA left (log2) [5],uncleaved DNA left (log2) [6],uncleaved DNA left (log2) [7],uncleaved DNA left (log2) [8],uncleaved DNA left (log2) [9],uncleaved DNA left (log2) [10]
GGCGAAT,-0.12,-0.128,0.324,1.08,-0.0374,1.76,-0.0149,0.037,-0.0339,0.0529
AGACATC,0.0723,0.0682,0.758,1.77,0.0704,1.82,0.264,-0.0817,-0.00932,0.181
CTATAAA,-0.0786,-0.0847,-0.155,-0.145,-0.0481,-0.726,0.107,0.0981,-0.0991,0.0537
CTCACGA,0.0254,0.082,-0.0858,-0.39,-0.0678,-0.809,0.115,-0.0337,-0.00628,-0.0776
GTAGTGT,0.018,0.0116,0.241,0.717,-0.0363,1.11,-0.0567,0.011,0.0925,0.0753
GAAATCC,0.07,-0.0115,0.16,0.414,0.0699,0.771,0.149,0.00182,0.0376,0.0949
CTGTGTT,-2.85,-1.94,-1.17,-2.39,-2.16,-0.599,-3.24,-0.361,-0.029,-1.14
AGTTGAC,0.255,0.21,0.12,0.717,0.184,0.167,0.252,0.275,0.127,0.257
ATCAGAG,0.046,-0.109,-0.611,-0.369,0.049,-1.18,0.168,-0.0306,-0.0241,-0.155
TTAAAAC,-0.056,-0.124,0.0367,-1.24,-0.0777,-0.393,0.0935,-0.0364,-0.115,-0.0795
GAGATGA,0.234,0.159,0.622,1.43,0.208,1.62,0.249,0.0922,0.0499,0.137
GAAGATC,0.0464,-0.044,0.228,0.221,0.0256,0.663,0.000899,0.0863,0.0732,0.0919
ACGCGGC,-0.021,0.0659,-0.509,-0.328,0.0597,-0.864,0.286,0.0988,0.0752,-0.042
AATAAAT,0.02,-0.0656,-0.0598,-1.05,-0.0183,-0.171,-2.59,0.109,-0.0455,-0.00751
GGGAATA,-0.0624,0.0269,0.866,2.01,0.0313,2.23,0.154,-0.0158,-0.0182,0.169
CATGTCA,-0.16,0.0611,-0.17,-1.41,-0.0112,-0.99,-0.061,-0.0751,0.141,0.00336
CTGTCAT,-0.226,-0.239,-0.136,-0.425,-0.0971,-0.386,-1.13,-0.332,-0.16,-0.192
CGCAGCT,0.111,0.0831,0.226,0.222,0.0411,0.0342,0.1,0.106,-0.107,0.0151
